# Measurements published in the supplement of paper PMC12067230.
# This is a noisy data set.
# Experiment: amyloid nucleation score relative to library mode (yeast Sup35 reporter selection) (log enrichment difference); higher = more amyloid nucleation; sequences are the first 22 residues of the Bri2 peptide extended by up to 12 random residues
# Conditions: random library (experiment): 1;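 active = nucleation score significantly above 0 at FDR 0.05; inactive = not significantly above 0 or absent from output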
# 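Note: [psi-pin-] Saccharomyces cerevisiae expressing SupN fusions, induced by 100 µM Cu2SO4, selected 7 d at 30 °C without adenine and uracil, scored by deep sequencing of output versus input.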
row,Sequence,amyloid nucleation score
1,EASNCFAIRHFENKFAVETLICVRRAETSVDDGC,-0.137
2,EASNCFAIRHFENKFAVETLICVRRCRYWRRLPV,1.14
3,EASNCFAIRHFENKFAVETLICVRRFKCGSWRKR,inactive
4,EASNCFAIRHFENKFAVETLICVRRLSVYAVMY,inactive
5,EASNCFAIRHFENKFAVETLICVRRPIKMAPWLG,inactive
6,EASNCFAIRHFENKFAVETLICVRRPSLTTTGAQ,inactive
7,EASNCFAIRHFENKFAVETLICVRRSRLGGLPVR,inactive
8,EASNCFAIRHFENKFAVETLICVRRSRRGPCVCE,inactive
9,EASNCFAIRHFENKFAVETLICVRSARPL,inactive
10,EASNCFAIRHFENKFAVETLICVRSCLGWVVGGW,1.31
11,EASNCFAIRHFENKFAVETLICVRSDGGQRCSMW,4.29
12,EASNCFAIRHFENKFAVETLICVRSIRYRLWPHV,inactive
13,EASNCFAIRHFENKFAVETLICVRSLTILWFPLT,inactive
14,EASNCFAIRHFENKFAVETLICVRSMR,1.89
15,EASNCFAIRHFENKFAVETLICVRSRGLAPRWLS,0.655
16,EASNCFAIRHFENKFAVETLICVRSRRQPAQLVR,inactive
17,EASNCFAIRHFENKFAVETLICVRSSTKNDTPLV,0.165
18,EASNCFAIRHFENKFAVETLICVRTGALHGALG,-0.258
19,EASNCFAIRHFENKFAVETLICVRTGMWGSGLLR,inactive
20,EASNCFAIRHFENKFAVETLICVRTR,inactive
21,EASNCFAIRHFENKFAVETLICVRTRCGNVGWSC,inactive
22,EASNCFAIRHFENKFAVETLICVRTTYLRMSCTG,inactive
23,EASNCFAIRHFENKFAVETLICVRVKVTRPAKCG,inactive
24,EASNCFAIRHFENKFAVETLICVRVQLLCGSR,2.74
25,EASNCFAIRHFENKFAVETLICVRVTRSWTCVY,4.05

row,Sequence,amyloid nucleation score
1,EASNCFAIRHFENKFAVETLICVRVWPHLYGTSR,inactive
2,EASNCFAIRHFENKFAVETLICVRWFC,5.92
3,EASNCFAIRHFENKFAVETLICVRWGLNSRRGMR,inactive
4,EASNCFAIRHFENKFAVETLICVRYRATCVDLAV,inactive
5,EASNCFAIRHFENKFAVETLICVRYWHSRGSKRG,inactive
6,EASNCFAIRHFENKFAVETLICVS,1.8
7,EASNCFAIRHFENKFAVETLICVSA,inactive
8,EASNCFAIRHFENKFAVETLICVSAFTVNSRFRC,inactive
9,EASNCFAIRHFENKFAVETLICVSAHICDTDVQT,4.93
10,EASNCFAIRHFENKFAVETLICVSARWCFGAAES,4.18
11,EASNCFAIRHFENKFAVETLICVSAVLCSFDAE,4.97
12,EASNCFAIRHFENKFAVETLICVSDPRAGFRPRI,2.52
13,EASNCFAIRHFENKFAVETLICVSECVT,inactive
14,EASNCFAIRHFENKFAVETLICVSERLKHFVGVG,inactive
15,EASNCFAIRHFENKFAVETLICVSFGTLFKSDKT,8.26
16,EASNCFAIRHFENKFAVETLICVSFVSLVASTGN,3.25
17,EASNCFAIRHFENKFAVETLICVSG,inactive
18,EASNCFAIRHFENKFAVETLICVSGEMAMLGSWP,inactive
19,EASNCFAIRHFENKFAVETLICVSGHAYEHYRGS,inactive
20,EASNCFAIRHFENKFAVETLICVSGRVQNGPLSR,inactive
21,EASNCFAIRHFENKFAVETLICVSHRNLRVGIMP,inactive
22,EASNCFAIRHFENKFAVETLICVSHSRLIMCPRL,inactive
23,EASNCFAIRHFENKFAVETLICVSIVLFTWDVR,inactive
24,EASNCFAIRHFENKFAVETLICVSKSVCFTAHAW,inactive
25,EASNCFAIRHFENKFAVETLICVSKTGCGWLMCA,inactive

# Same assay, conditions: random library (experiment): 2
row,Sequence,amyloid nucleation score
1,EASNCFAIRHFENKFAVETLICVRRNILCLRNVW,inactive
2,EASNCFAIRHFENKFAVETLICVRRPSASSSFNW,0.533
3,EASNCFAIRHFENKFAVETLICVRRY,inactive
4,EASNCFAIRHFENKFAVETLICVRRYSYLRLSDV,inactive
5,EASNCFAIRHFENKFAVETLICVRSWWTLLMISF,-0.215
6,EASNCFAIRHFENKFAVETLICVRSYYSTSCRG,inactive
7,EASNCFAIRHFENKFAVETLICVRTIWCTFLSSV,inactive
8,EASNCFAIRHFENKFAVETLICVRV,inactive
9,EASNCFAIRHFENKFAVETLICVRVQSLSDNQAW,inactive
10,EASNCFAIRHFENKFAVETLICVRVSLSCMMCTH,7.88
11,EASNCFAIRHFENKFAVETLICVRVYHGVGVC,inactive
12,EASNCFAIRHFENKFAVETLICVRVYSPWICGGW,4.34
13,EASNCFAIRHFENKFAVETLICVRWSRCPTACQV,inactive
14,EASNCFAIRHFENKFAVETLICVRYCCKIIKTRC,inactive
15,EASNCFAIRHFENKFAVETLICVRYFSNRSLTQE,1.87
16,EASNCFAIRHFENKFAVETLICVSAGKLNDNFGH,inactive
17,EASNCFAIRHFENKFAVETLICVSAI,inactive
18,EASNCFAIRHFENKFAVETLICVSAPYVWFMYYW,inactive

row,Sequence,amyloid nucleation score
1,EASNCFAIRHFENKFAVETLICVSARDCDTLPDS,inactive
2,EASNCFAIRHFENKFAVETLICVSCATFTGTSRS,9.96
3,EASNCFAIRHFENKFAVETLICVSCVSG,6.13
4,EASNCFAIRHFENKFAVETLICVSDC,inactive
5,EASNCFAIRHFENKFAVETLICVSDF,3.73
6,EASNCFAIRHFENKFAVETLICVSDRW,1.22
7,EASNCFAIRHFENKFAVETLICVSECVQRLGTVS,inactive
8,EASNCFAIRHFENKFAVETLICVSEGGAVPNGLG,-0.0198
9,EASNCFAIRHFENKFAVETLICVSFCNMKINLWM,5.55
10,EASNCFAIRHFENKFAVETLICVSFIRWSYTLYG,inactive
11,EASNCFAIRHFENKFAVETLICVSFMGSVTVSLS,0.806
12,EASNCFAIRHFENKFAVETLICVSFSSISVNLLK,0.627
13,EASNCFAIRHFENKFAVETLICVSFVYFFDRIRV,2.34
14,EASNCFAIRHFENKFAVETLICVSGGMGPERHQV,inactive
15,EASNCFAIRHFENKFAVETLICVSGSYLGAKMGE,3.11
16,EASNCFAIRHFENKFAVETLICVSIIMRSNCLKV,inactive
17,EASNCFAIRHFENKFAVETLICVSK,inactive
18,EASNCFAIRHFENKFAVETLICVSKHCIRKSMFL,inactive

# Same assay, conditions: random library (experiment): 3
row,Sequence,amyloid nucleation score
1,EASNCFAIRHFENKFAVETLICVRRGL,inactive
2,EASNCFAIRHFENKFAVETLICVRRGRIRMRAEK,inactive
3,EASNCFAIRHFENKFAVETLICVRRLNYAMPGGW,4.62
4,EASNCFAIRHFENKFAVETLICVRRPGACPWVVC,1.11
5,EASNCFAIRHFENKFAVETLICVRRVF,inactive
6,EASNCFAIRHFENKFAVETLICVRRVLLWYVLCP,inactive
7,EASNCFAIRHFENKFAVETLICVRSGPSSWSLPG,2.59
8,EASNCFAIRHFENKFAVETLICVRSLHQEGVRRW,3.86
9,EASNCFAIRHFENKFAVETLICVRTSDFVGNLHR,1.11
10,EASNCFAIRHFENKFAVETLICVRVM,0.461
11,EASNCFAIRHFENKFAVETLICVRVSMECSKCEL,inactive
12,EASNCFAIRHFENKFAVETLICVRWFGLGPFIGW,inactive
13,EASNCFAIRHFENKFAVETLICVRYKVCL,3.82
14,EASNCFAIRHFENKFAVETLICVRYLSAVGFMLH,inactive
15,EASNCFAIRHFENKFAVETLICVSAMGAWASRRW,inactive
16,EASNCFAIRHFENKFAVETLICVSAPI,inactive
17,EASNCFAIRHFENKFAVETLICVSARFSWFSVWN,inactive

row,Sequence,amyloid nucleation score
1,EASNCFAIRHFENKFAVETLICVSASISPFVVIR,inactive
2,EASNCFAIRHFENKFAVETLICVSDAMWVLLEDQ,inactive
3,EASNCFAIRHFENKFAVETLICVSDIWIRPQVVL,inactive
4,EASNCFAIRHFENKFAVETLICVSDLRMCELMSA,inactive
5,EASNCFAIRHFENKFAVETLICVSDYVLHKLVVR,inactive
6,EASNCFAIRHFENKFAVETLICVSEASRKVRMLD,inactive
7,EASNCFAIRHFENKFAVETLICVSEVLCPEYILV,inactive
8,EASNCFAIRHFENKFAVETLICVSFLIVFGLVNV,inactive
9,EASNCFAIRHFENKFAVETLICVSGGWDSLGRRV,inactive
10,EASNCFAIRHFENKFAVETLICVSGPVVLGVSLS,6.07
11,EASNCFAIRHFENKFAVETLICVSGVGRWVARLA,inactive
12,EASNCFAIRHFENKFAVETLICVSHCNVSGGIMW,6.8
13,EASNCFAIRHFENKFAVETLICVSHGISFRVS,inactive
14,EASNCFAIRHFENKFAVETLICVSIFYEHNWSAL,3.86
15,EASNCFAIRHFENKFAVETLICVSIGGELRSQRG,4.34
16,EASNCFAIRHFENKFAVETLICVSKLYVCRGCCA,inactive
